Measured values from the supplement of paper PMC4967469.

Legend:
Assay in all cases: Viability of human cancer cell lines after 72 h of drug (GDSC screen)
[1] = compound: CCc1cncnc1N1CCN(Cc2nc3ccc(C(F)(F)F)cc3[nH]2)CC1 [PF-4708671]; settings: top dose 10 µM; top dose inferred
Protocol: (§1)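 Human cancer cell lines in 384-well plates, medium with 10% serum, drug for 72 h over a 256-fold dose range (nine 2-fold or five 4-fold steps up to the top dose). Adherent lines were fixed and stained with the nucleic acid dye Syto60, suspension lines read with resazurin; signal relative to control wells, capped at 0 and 100%. One two-parameter sigmoid per drug and line, fitted in a mixed model over all curves with the slope shared within a line.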

[2] = compound: CCN1CCN(Cc2ccc(NC(=O)c3ccc(C)c(/C=C/c4cnc5[nH]ccc5c4OC)c3)cc2C(F)(F)F)CC1 [HG-6-64-1]; settings: top dose 5.12 µM; top dose inferred
Protocol: as §1

[3] = compound: O=C(NC(COc1ccc2[nH]c(=O)[nH]c2c1)c1ccccc1)c1cccn(Cc2ccc(F)c(F)c2)c1=O [KIN001-244]; settings: top dose 20 µM; top dose inferred
Protocol: as §1

[4] = compound: Nc1ccccc1NC(=O)c1ccc(CNC(=O)OCc2cccnc2)cc1 [MS-275]; settings: top dose 5 µM; top dose inferred
Protocol: as §1

[5] = compound: CCNC(=O)C[C@@H]1N=C(c2ccc(Cl)cc2)c2cc(OC)ccc2-n2c(C)nnc21 [I-BET-762]; settings: top dose 20 µM; top dose inferred
Protocol: as §1

[6] = compound: CC(=O)Nc1cccc(-n2c(=O)n(C3CC3)c(=O)c3c(Nc4ccc(I)cc4F)n(C)c(=O)c(C)c32)c1 [Trametinib]; settings: top dose 1 µM
Protocol: as §1

[7] = compound: COc1cc2nccc(Oc3ccc(NC(=O)Nc4cc(C)on4)c(Cl)c3)c2cc1OC [AV-951]; settings: top dose 0.128 µM; top dose inferred
Protocol: as §1

Cell Line	AUC [1]	IC50 [1] [µM]	AUC [2]	IC50 [2] [µM]	AUC [3]	IC50 [3] [µM]	AUC [4]	IC50 [4] [µM]	AUC [5]	IC50 [5] [µM]	AUC [6]	IC50 [6] [µM]	AUC [7]	IC50 [7] [µM]
SUP-M2 (anaplastic large cell lymphoma, suspension)	0.977	> 10	0.994	> 5.12	0.871	11.7	0.721	1.1	0.7	3.89	0.984	> 1	0.974	> 0.128
SUP-T1 (T-cell lymphoblastic leukaemia, suspension)	0.953	> 10	0.476	0.277	0.88	17.4	0.987	> 5	0.692	4.07	0.986	> 1	0.99	> 0.128
SW684 (fibrosarcoma, adherent)	0.982	> 10	0.893	> 5.12	0.983	> 20	0.938	> 5	0.983	> 20	0.849	> 1	0.98	> 0.128
SW872 (soft tissue, adherent)	0.939	> 10	0.586	0.537	0.935	> 20	0.776	1.8	0.792	8.1	0.21	0.00976	0.989	> 0.128
SW954 (urogenital system, adherent)	0.973	> 10	0.628	0.725	0.745	6.36	0.611	0.634	0.897	> 20	0.308	0.018	0.979	> 0.128
SW962 (urogenital system, adherent)	0.971	> 10	0.92	> 5.12	0.795	11.9	0.818	3.75	0.726	6.5	0.617	0.142	0.979	> 0.128
TE-1 (oesophagus, adherent)	0.919	> 10	0.909	> 5.12	0.971	> 20	0.55	0.444	0.981	> 20	0.744	0.383	0.981	> 0.128
TE-5 (oesophagus, adherent)	0.972	> 10	0.841	4.36	0.938	> 20	0.786	2.51	0.96	> 20	0.601	0.124	0.984	> 0.128
TE-6 (oesophagus, adherent)	0.927	> 10	0.906	> 5.12	0.869	> 20	0.944	> 5	0.918	> 20	0.953	> 1	0.986	> 0.128
TE-8 (oesophagus, adherent)	0.873	> 10	0.858	4.69	0.887	> 20	0.552	0.437	0.977	> 20	0.474	0.0527	0.985	> 0.128
TE-9 (oesophagus, adherent)	0.916	> 10	0.565	0.485	0.906	> 20	0.761	–	0.975	> 20	0.935	> 1	0.981	> 0.128
TE-10 (oesophagus, adherent)	0.948	> 10	0.749	1.63	0.889	> 20	0.881	> 5	0.973	> 20	0.801	0.477	0.987	> 0.128
TE-12 (oesophagus, suspension)	0.953	> 10	0.737	1.8	0.848	> 20	0.827	4	0.978	> 20	0.586	0.113	0.981	> 0.128
TE-15 (oesophagus, suspension)	0.893	> 10	0.56	0.476	0.756	7.63	0.875	> 5	0.883	> 20	0.865	> 1	0.984	> 0.128
TGW (neuroblastoma, adherent)	0.99	> 10	0.955	> 5.12	0.835	10.7	0.71	1.1	0.846	11.7	0.978	> 1	0.991	> 0.128
TK10 (kidney, adherent)	0.963	> 10	0.901	> 5.12	0.761	8.49	0.733	1.69	0.981	> 20	0.553	0.0901	0.979	> 0.128
TK (B-cell lymphoma, suspension)	0.922	> 10	0.855	3.54	0.787	7.89	0.83	2.76	0.922	> 20	0.979	> 1	0.979	> 0.128
TUR (B-cell lymphoma, suspension)	0.945	> 10	0.897	> 5.12	0.803	9.06	0.958	> 5	0.899	> 20	0.897	> 1	0.984	> 0.128
U-87-MG (glioma, adherent)	0.959	> 10	0.965	> 5.12	0.811	13	0.793	2.75	0.907	> 20	0.579	0.107	0.975	> 0.128
U-698-M (B-cell leukaemia, suspension)	0.966	> 10	0.599	0.596	0.752	6.65	0.893	> 5	0.933	> 20	0.971	> 1	0.987	> 0.128
UACC-257 (melanoma, adherent)	0.843	9.81	0.833	4.49	0.739	7.25	0.712	1.45	0.882	> 20	0.115	< 0.00391	0.973	> 0.128
VA-ES-BJ (soft tissue, adherent)	0.943	> 10	0.609	0.649	0.907	> 20	0.827	3.27	0.966	> 20	0.863	0.941	0.985	> 0.128
VAL (B-cell lymphoma, suspension)	0.984	> 10	0.596	0.588	0.723	5.39	0.54	0.403	0.591	2.22	0.982	> 1	0.975	> 0.128
VCaP (prostate, adherent)	0.987	> 10	0.936	> 5.12	0.741	6.29	0.701	1.18	0.505	1.29	0.986	> 1	0.986	> 0.128
WIL2-NS (lymphoid neoplasm, suspension)	0.991	> 10	0.729	1.24	0.831	9.57	0.414	0.191	0.398	0.694	0.979	> 1	0.964	> 0.128
WSU-DLCL2 (B-cell lymphoma, suspension)	0.967	> 10	0.992	> 5.12	0.945	> 20	0.956	> 5	0.942	> 20	0.881	0.745	0.99	> 0.128
YT (lymphoid neoplasm, suspension)	0.956	> 10	0.66	0.825	0.88	15.4	0.978	> 5	0.573	1.92	0.992	> 1	0.99	> 0.128
no-10 (glioma, adherent)	0.976	> 10	0.912	> 5.12	0.894	> 20	0.691	1.22	0.981	> 20	0.854	> 1	0.979	> 0.128

The IC50 comes from the fitted curve, where viability falls to half of the control; where the fit passes the top or lowest dose, that dose stands as a limit. AUC is the area under the same curve over the 256-fold range up to the top dose, as a fraction: 1 means no effect, lower means more sensitive. For some of these results: Any top dose called inferred was derived from the fitted curves, not read from the paper.
